The test system of test [1] is E. coli K12 wild type strain. The conditions noted are these: KDO-N3 1 mM, 12 hours; click with biotin-alkyn; anti-biotin antibody coupled to Alexa Fluor. The protocol:
E. coli K12 wild type strain is grown in Luria-Bertani (LB) medium in a rotary shaker (200 rpm) at 37° C.
Overnight cultures were diluted 100 times in fresh medium (final volume 200 μl) containing KDO-N3 (1 mM). Bacteria were incubated at 37° C. for 12 hours, washed 3 times with phosphate buffer (0.05 M, pH 7.5) by centrifugation at 14000×g for 2 min at room temperature. A click pre-mix composed of CuSO4 and TGTA, at a final concentration of 2 mM and 4 mM respectively, was incubated overnight in phosphate buffer at 37° C. under vigorous shaking. Next, aminoguanidine, sodium ascorbate at final concentrations of 4 mM and 5 mM respectively were added to the overnight pre-mix click. […]
An anti-biotin antibody coupled to Alexa Fluor A594 (Jackson Immuno Research) was used diluted 10 to 1000 times to label bacteria. Colony forming units (CFU) were also monitored by plating dilutions before Copper click chemistry.
Microscopic analyses were performed after Copper click chemistry on bacterial inoculum placed onto glass cover slips and covered with a thin (1 mm thick) semisolid 1% agar pad made with dilute LB (1/10 in phosphate buffer). Images were recorded with an epifluorescence automated microscope (Nikon TE2000-E-PFS, Nikon, France) equipped with a CooISNAP HQ 2 camera (Roper Scientific, Roper Scientific SARL, France) and a 100×/1.4 DLL objective. […]

Test [2] has as its system E. coli K12 wild type strain. Nature of the test: KDO-N3 assimilation in various culture media (M9, LB). The conditions noted are these: KDO-N3 1 mM, 12 hours. The format is cell-based, Escherichia coli.
Test [3] deals with mixture of Gram+ bacteria (B. subtilis) and Gram− bacteria (E Coli). The method, then:
(§1) Overnight cultures were diluted 100 times in fresh medium (final volume 200 μl) containing KDO-N3 (1 mM). Bacteria were incubated at 37° C. for 12 hours and then washed 3 times with phosphate buffer (0.05 M, pH 7.5) by centrifugation at 14000×g for 2 min at room temperature.
(§2) A click pre-mix composed of CuSO4 and TGTA, at a final concentration of 2 mM and 4 mM respectively, is incubated overnight in a phosphate buffer (0.05 M, pH 7.5) at 37° C. under vigorous shaking. Next, amino guanidine, sodium ascorbate and A488-yne at final concentrations of 4 mM, 5 mM and 0.13 mM respectively were added to the overnight click pre-mix. Bacteria were then re-suspended in this solution and incubated 30 minutes at 37° C. under shaking. Finally, cells were washed 3 times with phosphate buffer by centrifugation at 14000×g for 2 min at room temperature.
(§3) 1.3.3) Microscopic analyses were performed after Copper click chemistry on bacterial inoculum placed onto glass cover slips and covered with a thin (1 mm thick) semisolid 1% agar pad made with dilute LB (1/10 in phosphate buffer). Images were recorded with an epifluorescence automated microscope (Nikon TE2000-E-PFS, Nikon, France) equipped with a Cool SNAP HQ 2 camera (Roper Scientific, Roper Scientific SARL, France) and a 100×/1.4 DLL objective. Excitation light was emitted by a 120 W metal halide light and signal was monitored using appropriate filters. Digital analysis and image processing were conducted by a custom automation script (Visual Basic) under Metamorph 7.5 (Molecular Devices, Molecular Devices France, France).
E. coli K12 wild type strain rendered fluorescent via m-cherry, E. coli K12 sodA-mCherry and B. subtilis were grown in Luria-Bertani (LB) medium in a rotary shaker (200 rpm) at 37° C.
1.2) Copper catalysed click chemistry (as disclosed in example 6)
1.3) Bacterial counting and fluorescence microscopy (as disclosed in example 5)

The subject of test [4] is E. coli K12 (living and heat-killed). The method, then:
as §1, §2
E. coli K12 was grown in Luria-Bertani (LB) medium in a rotary shaker (200 rpm) at 37° C. Dead E. coli K12 were obtained after heating at 120° C. for 15 minutes.
1.2) Copper catalysed click chemistry (as disclosed in example 5).
1.3.1) For total bacterial scoring, cells were fixed and stained in a solution of paraformaldehyde 3%—DAPI 2 μg/ml and filtered on an isopore polycarbonate membrane (Milipore).
1.3.2) Colony forming units (CFU) were also monitored by plating dilutions before Copper click chemistry.
as §3

Where [5] appears, read: E. coli plus B. subtilis, 696 analyzed cells.
The mark [6] stands for this setting: KDO-N3 1 mM, click with A488-yne, threshold 30 arbitrary fluorescence unit.

Regarding `[N-]=[N+]=NC[C@@H](O)[C@@H](O)[C@H](O)[C@H](O)CC(=O)C(=O)O` [KDO-N3, 8-azido-3,8-dideoxy-D-manno-octulosonic acid], in test [1], the “detection of viable E. coli, Kdo positive cell counting versus cultivable counting” value is “all viable E. coli bacteria were detected”. Besides, the “KDO assimilation in LB medium compared to M9 medium” value in test [2] (616 cells LB, 598 cells M9) is given as “higher”. Moreover, in test [2] (M9 or LB medium), the KDO assimilation result is “occurs whatever the culture medium used”. Also, in test [3] (setting [5]), the “KDO-N3+ cells, Total” value was found to be 521 and the “KDO-N3− cells, Total” value came out at 175. Moreover, the “labeling and detection in Gram+/Gram− mixture” value in test [3] (mixture contacted with KDO-N3) is “Only cultivable Gram− bacteria was labeled”. In test [4], the “cultivable cell share by KDO-N3 fluorescence counting” value is reported as 47.7%. Also, in test [4] (setting [6]), the “cultivable cells (KDO-N3+), fluorescence above threshold 30” value is listed as 1452 cells and the “dead cells (KDO-N3−), fluorescence below threshold 30” value is given as 1587 cells. Further, in test [4] (known numbers of cultivable and dead (120° C., 15 minutes) E. coli), the “incorporation in living versus dead E. coli” value was “incorporated only in living E coli”. Also, in test [4] (known numbers of cultivable and dead E. coli), the “incorporation, share of the living E. coli” value is “incorporated in all of the living E. coli”.
